This passage reports activity change, negative = inhibition results from PubChem BioAssay AID1745853 (National Center for Advancing Translational Sciences (NCATS), 2022).

The other results are listed elsewhere or left out. Shown are side measurements of this screen, not its main read-out; they come without a call.

Assay in all cases: Primary Screen for Target Class Profiling of Small Molecule Inhibitors of Methyltransferases
Assay [1] deals with Glycine N-methyltransferase (Homo sapiens) (UniProt Q14749). The settings on record: purified enzyme, MTase-Glo SAH luminescence; measured here: GNMT inhibition; at 40 µM; stronger effect = lower value. The text has this:
(§1) PI: Matthew D. Hall Ph.D. and Quinlin M. Hanson Ph.D.
(§2) National Center for Advancing Translational Sciences (NCATS)
(§3) National Institute of Health (NIH), Rockville, MD
(§4) Target class profiling (TCP) is a chemical biology approach amenable to investigating understudied biological targets. TCP is achieved by developing a generalizable assay platform and applying it to screen a curated set of compound libraries against representative members of a target class. Small molecule methyltransferases (SMMTase) are a subclass of methyltransferase that act on metabolites to modulate signaling pathways, metabolize xenobiotics, or balance the available methyl pool. We screened four curated libraries totaling 27,574 unique compounds against the SMMTases nicotinamide N-methyltransferase (NNMT), phenylethanolamine N-methyltransferase (PNMT), histamine N-methyltransferase (HNMT), glycine N-methyltransferase (GNMT), catechol O-methyltransferase (COMT), and guanidinoacetate N-methyltransferase (GAMT). The data generated by this TCP can be leveraged for informed tool molecule development. For example, in the associated publication we identified a chemotype of HNMT-selective inhibitors. Additionally, we identified a putative SMMTase-selective inhibitor with potential as a tool molecule for studying broader methyltransferase biology.
(§5) High-through put screening assays were developed at the National Center for Advancing Translational Science (NCATS) for the enzymes NNMT, PNMT, HNMT, GNMT, COMT, and GAMT. Enzymatic activity was measured as a function of SAM cofactor conversion using the MTase Glo kit (Promega) for all enzymes. All assays were performed in 1536-well format with substrates and SAM concentrations at KM values. Enzyme concentration and assay timing were optimized for 10-20% SAM conversion. Initial screening of 27,574 compounds was done as single-point assays using the highest compound concentration (40 uM). […] These compounds were replated in 11-point dose response and assayed against NNMT, PNMT, HNMT, GNMT, COMT, GAMT, and a counter-assay. The IC50 and efficacy (maximal response) values were determined for each dose-response curve. These values are also accounted for in the area under the curve (AUC) values.
(§6) PROTOCOL TABLE (as described by Inglese J, Shamu CE and Guy RK. 2007)
(§7) SEQUENCE No. (e.g., 1, 2, 3, etc.); […] (e.g., Cells, Incubation, Reagent, etc.); VALUE; DESCRIPTION.
(§8) 1; Reagent; 2 uL; SMMTase Enzyme (2x) in reaction buffer, columns 1- 48.
(§9) 2; Reagent; 1 uL; SAM (4x) in reaction buffer, columns 1-48.
(§10) 3; Controls; 23 nL; DMSO in column 4; sinefungin in DMSO (0 uM - 40 uM) in 7-point 1:2 dilution series (n = 2) in column 2.
(§11) 4; Compounds; 23 nL; Columns 5-48.
(§12) 5; Reagent; 1 uL; Substrate (4x) in reaction buffer, columns 2-48.
(§13) 6; Time; 20-30 min; Incubation.
(§14) 7; Reagent; 1 uL; MTase-Glo reagent (5X), columns 1-48.
(§15) 8; Time; 30 min; Incubation.
(§16) 9; Reagent; 5 uL; MTase-Glo Detection reagent, columns 1-48.
(§17) 10; Time; 30 min; Incubation, luminescence evolution.
(§18) 11; Detection; Luminescence; ViewLux uHTS Microplate Imager (PerkinElmer).
(§19) NOTES (numbers refer to Sequence numbers above)
(§20) 1, 2, 5. White Medium Binding Greiner 1536-well plates (Cat #789175-F, Greiner Bio-One, Monroe, NC); Reaction buffer: 50 mM Tris, pH 8.0, 3 mM MgCl2, 1 mM EDTA, 50 mM NaCl, 1 mM DTT, and 0.1 mg/mL BSA. Evaporation was prevented by covering assay plates with metal lids containing holes to allow gas diffusion.
(§21) 1. Six SMMTase were profiled: HNMT, GNMT, PNMT, COMT, NNMT, GAMT
(§22) 5. The corresponding substrate was used for each enzyme: HNMT - 5.3 uM Histamine; GNMT - >500 uM Glycine; PNMT - 16.2 uM Norephinephrine; COMT - 13.7 uM Norephinephrine; NNMT - 3.8 uM Nicotinamide; GAMT - 2.5 uM Guanidinoacetate.6, 8, 10. Room temperature
(§23) 6. Final reaction conditions: 10 nM COMT, 5 uM SAM, 15 uM norepinephrine, 50 mM Tris, pH 8.0, 3 mM MgCl2, 1 mM EDTA, 50 mM NaCl, 1 mM DTT, and 0.1 mg/mL BSA; refer to tables 2 and S1 for specific timing.
8. […]

Assay [2] has as its target Guanidinoacetate N-methyltransferase (Homo sapiens) (UniProt Q14353). The note with it: purified enzyme, MTase-Glo SAH luminescence; measured here: GAMT inhibition; at 40 µM; stronger effect = lower value.
Source text: as §1, §2, §3, §4, §5, §6, §7, §8, §9, §10, §11, §12, §13, §14, §15, §16, §17, §18, §19, §20, §21, §22, §23
8. […]

The target in assay [3] is Histamine N-methyltransferase (Homo sapiens) (UniProt P50135). The settings on record: purified enzyme, MTase-Glo SAH luminescence; measured here: HNMT inhibition; at 40 µM; stronger effect = lower value.
Source text: as §1, §2, §3, §4, §5, §6, §7, §8, §9, §10, §11, §12, §13, §14, §15, §16, §17, §18, §19, §20, §21, §22, §23
8. […]

The target of assay [4] is Nicotinamide N-methyltransferase (Homo sapiens) (UniProt P40261). The note with it: purified enzyme, MTase-Glo SAH luminescence; measured here: NNMT inhibition; at 40 µM; stronger effect = lower value.
Source text: as §1, §2, §3, §4, §5, §6, §7, §8, §9, §10, §11, §12, §13, §14, §15, §16, §17, §18, §19, §20, §21, §22, §23
8. […]

Assay [5] deals with Phenylethanolamine N-methyltransferase (Homo sapiens) (UniProt P11086). The note with it: purified enzyme, MTase-Glo SAH luminescence; measured here: PNMT inhibition; at 40 µM; stronger effect = lower value.
Source text: as §1, §2, §3, §4, §5, §6, §7, §8, §9, §10, §11, §12, §13, §14, §15, §16, §17, §18, §19, §20, §21, §22, §23
8. […]
% is set by controls: 0 for no effect and ±100 for the full control effect.

With `Cc1noc2c(N3CCOCC3)cc(-c3cccs3)nc12`, the activity change, negative = inhibition was -9% in assay [1]; -21.2% in assay [2]; -3.72% in assay [3]; -50.8% in assay [4]; -2.35% in assay [5].
For `C=C1/C(=C/C=C2\CCC[C@]3(C)[C@@H]([C@H](C)/C=C/[C@@H](C)C(C)C)CC[C@@H]23)C[C@@H](O)C[C@@H]1O`, the activity change, negative = inhibition was -17.1% in assay [1]; 6.55% in assay [2]; 3.04% in assay [3]; -15.1% in assay [4]; -0.388% in assay [5].
In the same order, the values of `O=C(NC[C@H]1COCc2nc3cc(F)ccc3n21)C1CC1` are -2.54%, -2.19%, 0.243%, -0.699% and -1.17%.
In the same order, the values of `CC1(CO)CC[C@]2(C(=O)O[C@@H]3O[C@H](CO)[C@@H](O)[C@H](O)[C@H]3O)CC[C@]3(C)C(=CCC4[C@@]5(C)C[C@H](O)[C@H](O[C@@H]6OC[C@@H](O)[C@H](O)[C@H]6O)[C@@](C)(CO)C5CC[C@]43C)C2C1` (stereo not given in full) are 0%, 7.22%, 8.49%, -6.09% and 3.05%.
For `Cn1nccc1CCC(=O)N1CCN(C(=O)C2CCC2)[C@@H]2CS(=O)(=O)C[C@@H]21` the same measures were -1.1%, -1.3%, 0.998%, -4.93% and -2.31%.
Take `Nc1nc(C2CC(O)C2)cc(N2CC(N3CCOCC3)C2)n1` (stereo not given): the activity change, negative = inhibition in assay [1] was -1.6%; in assay [2], -4.5%; in assay [3], -0.981%; in assay [4], -3.3%; in assay [5], -9.76%.
Take `CN(Cc1cccn1C)C(=O)Nc1ccc(Cl)cc1`: the activity change, negative = inhibition was -6.26% in assay [1]; -3.29% in assay [2]; -1.75% in assay [3]; -3.04% in assay [4]; -9.03% in assay [5].
For the compound `O=C(CCC1CCCN(S(=O)(=O)c2ccccc2F)C1)NCCCN1CCCC1=O` (stereo not given), the activity change, negative = inhibition in assay [1] was 0.863%; in assay [2], 4.02%; in assay [3] it was -0.418%; in assay [4], -2.4%; in assay [5], -2.72%.
For the compound `COc1ccc(N2C(=O)c3cc4occc4n3CC2(C)C(=O)NC2CCCCCC2)cc1OC` (stereo not given), the activity change, negative = inhibition in assay [1] is 1.93%; in assay [2] it was 0%; in assay [3] it was 8.49%; in assay [4] it was 4.8%; in assay [5], 2.87%.
Consider `COCCNCc1ccc(-c2cc3nccc(Oc4ccc(NC(=O)C5(C(=O)Nc6ccc(F)cc6)CC5)cc4F)c3s2)nc1`, for which the activity change, negative = inhibition in assay [1] was -4.99%; in assay [2], 5.63%; in assay [3], 4.13%; in assay [4] it was -10.3%; in assay [5] it was 4.68%.
Regarding `COCc1nn(CC(=O)NC(C)Cc2cc(C)[nH]n2)c(=O)n1-c1ccccc1` (stereo not given), the activity change, negative = inhibition is -4.09% in assay [1]; -11.2% in assay [2]; -2.83% in assay [3]; -14.3% in assay [4]; -12.1% in assay [5].
`C=C(C(=O)O)C1CCC2(C)CCCC(C)(O)C2C1` (stereo not given): the activity change, negative = inhibition in assay [1] was -2.54%; in assay [2], -7.77%; in assay [3], 5.37%; in assay [4], -18.4%; in assay [5] it was 1.23%.
`CC12CCC(OC3OC(CO)C(O)C(OC4OC(CO)C(O)C(O)C4O)C3O)CC1CCC1C2CCC2(C)/C(=C3/COC(=O)C3)CCC12O` (stereo not given): the activity change, negative = inhibition was 3.87% in assay [1]; 0.378% in assay [2]; 11.5% in assay [3]; -11.7% in assay [4]; -5.88% in assay [5].
For `COc1ccccc1CN1C(=O)c2cc(C(C)(C)C)nn2CC1(C)C(=O)NC1CCCCCC1` (stereo not given) the same measures were 4.87%, 4.85%, 6%, 0.496% and 2.21%.
For `CC(C)[C@@](C)(O)[C@@H]1CN(c2nc(-c3[nH]nc4ncccc34)c(F)cc2Cl)CCN1` the same measures were -50.5%, -45.9%, -63%, -55.4% and -63.9%.
In the same order, the values of `CNC(=O)[C@@H]1C[C@@H](n2cc(CNC(=O)Cc3ccc(F)cc3)nn2)CN1` are -0.507%, 0.782%, 2.31%, -3.66% and 12.4%.
With `O=c1c2ccccc2n2c(=O)n(Cc3ccccc3)nc2n1CCc1ccccc1`, the activity change, negative = inhibition is -3.88% in assay [1]; -1.8% in assay [2]; 1.85% in assay [3]; -5.57% in assay [4]; -3.38% in assay [5].
